Data taken from patent publication US20230331822A1 (published 2023).

T1: HCoV-HKU1 Spike protein, full length, C-terminally fused with EGFP (HCoV-HKU1, UniProt Q5MQD0 13-1356)
T1 construct: whole, on cells
T1 sequence: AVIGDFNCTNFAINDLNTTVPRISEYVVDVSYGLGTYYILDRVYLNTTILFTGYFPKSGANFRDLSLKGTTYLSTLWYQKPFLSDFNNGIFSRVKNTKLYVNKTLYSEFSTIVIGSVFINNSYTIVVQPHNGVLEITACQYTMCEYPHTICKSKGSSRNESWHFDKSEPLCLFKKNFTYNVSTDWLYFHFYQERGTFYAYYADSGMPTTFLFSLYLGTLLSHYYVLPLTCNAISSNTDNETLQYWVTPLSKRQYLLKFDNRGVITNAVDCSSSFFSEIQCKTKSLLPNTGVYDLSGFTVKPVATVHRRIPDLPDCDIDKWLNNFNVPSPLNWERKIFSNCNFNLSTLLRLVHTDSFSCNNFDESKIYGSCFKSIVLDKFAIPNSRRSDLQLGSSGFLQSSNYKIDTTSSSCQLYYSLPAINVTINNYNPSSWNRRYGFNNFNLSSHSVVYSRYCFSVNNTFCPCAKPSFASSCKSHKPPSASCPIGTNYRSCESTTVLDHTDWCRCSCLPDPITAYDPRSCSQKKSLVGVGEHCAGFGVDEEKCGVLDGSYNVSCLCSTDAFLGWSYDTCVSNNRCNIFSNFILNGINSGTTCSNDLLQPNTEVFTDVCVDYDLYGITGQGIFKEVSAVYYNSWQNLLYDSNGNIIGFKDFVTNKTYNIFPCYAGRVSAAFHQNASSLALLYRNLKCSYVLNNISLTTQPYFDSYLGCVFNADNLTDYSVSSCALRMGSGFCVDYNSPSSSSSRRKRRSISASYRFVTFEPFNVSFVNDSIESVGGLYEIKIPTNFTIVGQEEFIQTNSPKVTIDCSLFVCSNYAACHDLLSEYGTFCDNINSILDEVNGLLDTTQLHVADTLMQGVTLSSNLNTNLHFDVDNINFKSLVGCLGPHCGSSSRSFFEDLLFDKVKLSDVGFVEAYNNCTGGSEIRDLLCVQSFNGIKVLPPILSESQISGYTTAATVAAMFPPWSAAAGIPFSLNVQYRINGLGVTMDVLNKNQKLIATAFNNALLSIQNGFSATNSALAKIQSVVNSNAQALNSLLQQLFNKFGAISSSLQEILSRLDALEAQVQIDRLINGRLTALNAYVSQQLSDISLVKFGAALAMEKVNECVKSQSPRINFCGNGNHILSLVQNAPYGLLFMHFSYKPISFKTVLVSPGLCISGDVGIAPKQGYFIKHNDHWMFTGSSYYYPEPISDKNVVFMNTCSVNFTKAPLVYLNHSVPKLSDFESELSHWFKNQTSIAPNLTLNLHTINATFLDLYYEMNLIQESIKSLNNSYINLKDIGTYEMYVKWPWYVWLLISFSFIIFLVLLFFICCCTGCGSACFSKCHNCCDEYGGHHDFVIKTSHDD

T2: HCoV-229E Spike protein, full length, C-terminally fused with EGFP (HCoV-229E, UniProt P15423 16-1173)
T2 construct: whole, on cells
T2 sequence: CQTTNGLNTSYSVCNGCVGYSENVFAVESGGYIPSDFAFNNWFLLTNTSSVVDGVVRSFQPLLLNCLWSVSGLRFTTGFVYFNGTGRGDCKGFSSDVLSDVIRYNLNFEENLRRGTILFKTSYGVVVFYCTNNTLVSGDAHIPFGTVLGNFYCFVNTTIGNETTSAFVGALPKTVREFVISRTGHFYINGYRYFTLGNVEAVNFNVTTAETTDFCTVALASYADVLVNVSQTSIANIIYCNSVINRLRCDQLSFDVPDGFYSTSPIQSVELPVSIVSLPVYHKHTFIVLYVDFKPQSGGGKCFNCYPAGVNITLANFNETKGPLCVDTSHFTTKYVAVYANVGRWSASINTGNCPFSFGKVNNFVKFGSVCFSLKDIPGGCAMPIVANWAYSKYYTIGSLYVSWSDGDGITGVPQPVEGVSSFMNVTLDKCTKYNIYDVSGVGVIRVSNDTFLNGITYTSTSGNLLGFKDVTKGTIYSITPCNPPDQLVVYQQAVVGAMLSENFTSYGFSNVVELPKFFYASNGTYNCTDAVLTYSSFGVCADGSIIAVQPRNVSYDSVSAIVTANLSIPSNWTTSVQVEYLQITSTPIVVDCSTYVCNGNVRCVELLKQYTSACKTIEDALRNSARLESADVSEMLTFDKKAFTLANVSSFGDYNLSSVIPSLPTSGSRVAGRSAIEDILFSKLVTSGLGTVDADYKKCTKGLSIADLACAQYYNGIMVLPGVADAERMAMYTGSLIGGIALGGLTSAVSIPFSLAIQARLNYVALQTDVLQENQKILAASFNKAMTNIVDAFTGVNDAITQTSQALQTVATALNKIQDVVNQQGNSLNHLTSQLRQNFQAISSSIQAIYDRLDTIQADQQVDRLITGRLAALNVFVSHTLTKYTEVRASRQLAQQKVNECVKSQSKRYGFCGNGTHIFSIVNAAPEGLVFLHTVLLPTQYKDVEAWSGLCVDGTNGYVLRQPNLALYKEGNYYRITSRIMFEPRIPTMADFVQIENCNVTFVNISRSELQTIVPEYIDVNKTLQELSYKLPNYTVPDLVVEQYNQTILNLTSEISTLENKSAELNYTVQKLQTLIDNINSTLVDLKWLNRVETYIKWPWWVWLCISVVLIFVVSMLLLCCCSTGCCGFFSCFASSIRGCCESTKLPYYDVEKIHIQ

B1: COV2-237-13-Fc (Fc fusion)
chain: QLQLVESGGDLVQPGESLRLSCVASFKSYHIAWIGWFRQAPGKEREGVSCSLTGASITSYADSVRGRFTISRENAKNAVYLEMNSLKPEDTAVYYCAARDYASSLYCSRNEAMYAYWGQGTQVTVSS[human IgG1 Fc with changes not listed]
B2: COV2-22-8-Fc (Fc fusion)
chain: QLQLVESGGDLVQPGESLRLSCVASGFTLDRYAIGWFRQAPGKEREGVSCISSGGTTSYADSVRGRFTISRENAKNAVYLEMNSLKPEDTAVYYCAAGTQLRYGCSRQARRYDYWGQGTQVTVSS[human IgG1 Fc with changes not listed]
B3: COV2-122-10-Fc (Fc fusion)
chain: QLQLVESGGDLVQPGESLRLSCVASGATSDIYAIGWFRQAPGKEREGVSCISPSGGSTSYADSVRGRFTISRENAKNAVYLEMNSLKPEDTAVYYCAAASPSWHYCSGYEHEYDDWGQGTQVTVSS[human IgG1 Fc with changes not listed]
B4: COV2-13-5-Fc (Fc fusion)
chain: QLQLVESGGDLVQPGESLRLSCVASGFTLGNYEIGWFRQAPGKEREGVSCISRSGVIFSYADSVRGRFTISRENAKNAVYLEMNSLKPEDTAVYYCAARFRAGLVQSLCQSTPEFYQDWGQGTQVTVSS[human IgG1 Fc with changes not listed]
B5: COV2-121-15-Fc (Fc fusion)
chain: QLQLVESGGDLVQPGESLRLSCVASFDDFAIGWIGWFRQAPGKEREGVSCSARGIVNTSYADSVRGRFTISRENAKNAVYLEMNSLKPEDTAVYYCAALVGLNDRSLPHEAEEYDYWGQGTQVTVSS[human IgG1 Fc with changes not listed]
B6: COV2-136-12-Fc (Fc fusion)
chain: QLQLVESGGDLVQPGESLRLSCVASGFTFHYYAIGWFRQAPGKEREGVSCISSGGGRTSYADSVRGRFTISRENAKNAVYLEMNSLKPEDTAVYYCAALQGSLHYCSGLVGEYEYWGQGTQVTVSS[human IgG1 Fc with changes not listed]
B7: COV2-115-7-Fc (Fc fusion)
chain: QLQLVESGGDLVQPGESLRLSCVASGFSLDGYAIGWFRQAPGKEREGVSCIGRLGTTTSYADSVRGRFTISRENAKNAVYLEMNSLKPEDTAVYYCAAKRSTWFGCSTLDDYDYWGQGTQVTVSS[human IgG1 Fc with changes not listed]
B8: COV2-353-14-Fc (Fc fusion)
chain: QLQLVESGGDLVQPGESLRLSCVASGFRLGGYAIGWFRQAPGKEREGVSCISGSGIISSYADSVRGRFTISRENAKNAVYLEMNSLKPEDTAVYYCAAPSGSSYGSRRLPCGIDSQDYQTWGQGTQVTVSS[human IgG1 Fc with changes not listed]
B9: COV2-356-6-Fc (Fc fusion)
chain: QLQLVESGGDLVQPGESLRLSCVASGFTLGNYAIGWFRQAPGKEREGVSCISLSGDIISYADSVRGRFTISRENAKNAVYLEMNSLKPEDTAVYYCAAPFPSLLYCSLCPSNPEFCRHWGQGTQVTVSS[human IgG1 Fc with changes not listed]
B10: COV2-324-16-Fc (Fc fusion)
chain: QLQLVESGGDLVQPGESLRLSCVASGFTFDDYSIGWFRQAPGKEREGVSCFSSLDGSTSYADSVRGRFTISRENAKNAVYLEMNSLKPEDTAVYYCAATRGSSWYWYRPSEYDYWGQGTQVTVSS[human IgG1 Fc with changes not listed]

Legend:
[1] = molecular target: T1, HCoV-HKU1 Spike protein, full length, …; assay: flow cytometry, HEK293 cells expressing full-length Spike-EGFP, anti-hIg-PE
[2] = molecular target: T2, HCoV-229E Spike protein, full length, …; assay: as above

| Binder | binding result [1] | binding result [2] |
| --- | --- | --- |
| B1 | no binding | no binding |
| B2 | no binding | no binding |
| B3 | no binding | no binding |
| B4 | no binding | no binding |
| B5 | no binding | no binding |
| B6 | no binding | no binding |
| B7 | no binding | no binding |
| B8 | no binding | no binding |
| B9 | no binding | no binding |
| B10 | no binding | no binding |
